Assay [1] addresses AtMYBR1/AtMYB44 full length fused to the GAL4 DNA-binding domain (pGBT9-MYBR1) (Arabidopsis thaliana) (UniProt Q9FDW1). The experiment in a line: two-hybrid; individual clones: pGBT9-MYBR1 or pGBT9-MYBR2 in yeast Y2H Gold mated 1 d at 30°C with pGADT7 fusions in yeast Y187; screened on DDO, DDO/X/A and QDO/X/A; also with phytohormones and inhibitors of auxin signaling (PCIB) and transport (TIBA, NPA), which did not affect the interactions.

Amino acid sequences for entries named in this document (tags omitted).
UniProt Q9FDW1: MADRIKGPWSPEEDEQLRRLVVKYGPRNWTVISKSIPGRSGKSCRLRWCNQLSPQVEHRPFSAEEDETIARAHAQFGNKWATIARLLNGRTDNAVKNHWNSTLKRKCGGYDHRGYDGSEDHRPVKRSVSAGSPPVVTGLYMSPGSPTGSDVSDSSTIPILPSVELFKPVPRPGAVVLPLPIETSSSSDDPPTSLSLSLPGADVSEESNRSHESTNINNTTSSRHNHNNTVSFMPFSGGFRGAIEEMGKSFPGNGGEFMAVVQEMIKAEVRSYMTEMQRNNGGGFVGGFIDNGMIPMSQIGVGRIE
UniProt Q9SN12: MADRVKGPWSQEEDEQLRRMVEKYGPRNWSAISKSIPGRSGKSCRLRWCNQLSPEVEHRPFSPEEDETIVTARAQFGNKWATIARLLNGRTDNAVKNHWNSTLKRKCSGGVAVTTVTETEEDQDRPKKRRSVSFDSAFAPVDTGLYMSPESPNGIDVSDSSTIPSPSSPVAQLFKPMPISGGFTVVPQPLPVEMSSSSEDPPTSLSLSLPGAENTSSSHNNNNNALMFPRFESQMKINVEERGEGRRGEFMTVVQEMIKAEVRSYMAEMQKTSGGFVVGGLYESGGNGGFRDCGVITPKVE
UniProt Q8VZS8: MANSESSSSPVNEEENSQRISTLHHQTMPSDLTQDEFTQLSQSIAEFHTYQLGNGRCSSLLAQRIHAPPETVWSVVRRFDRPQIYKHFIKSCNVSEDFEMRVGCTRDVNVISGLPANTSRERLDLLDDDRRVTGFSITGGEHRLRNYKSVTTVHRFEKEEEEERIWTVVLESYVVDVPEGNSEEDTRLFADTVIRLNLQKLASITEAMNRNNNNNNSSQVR

Assay [2] has as its target AtMYBR2/MYB77 full length fused to the GAL4 DNA-binding domain (pGBT9-MYBR2) (Arabidopsis thaliana) (UniProt Q9SN12). The description is as above.
Assay [3] addresses YFP175-end aa -MYBR1 (Arabidopsis thaliana) (UniProt Q9FDW1). The experiment in a line: split reporter; BiFC in N. benthamiana leaf epidermal cells; eYFP reconstituted from YFP1-174 and YFP175-end fusions.

Results are given in words; binding and its absence hold for the method and conditions named. For some of these results: In cells and extracts the contact can be indirect. Some results given as binding are weak or reduced against the parent protein; the word gives no strength.

Consider “AtMYBR2/MYB77 fused to the GAL4 activation domain (MYBR2-pGADT7) (from UniProt Q9SN12 1-301)”, for which the binding result in assay [1] is on record as “binds”.
Consider “PYL1 fused to the GAL4 activation domain (pGADT7) (from UniProt Q8VZS8 1-221) (receptor)”, for which the binding entry in assay [1] and in assay [2] was “no binding” throughout.
Regarding “YFP1-174 aa -MYBR2 (from UniProt Q9SN12 1-301)”, the binding entry in assay [3] was “binds”.
